# Measurements published in publication PMC6048857.
# No constants are given. Whether binding was seen depends on the method and setting. For part of these data: Binding seen in cells or lysates may run through a third protein. Some entries that bind do so weakly or less than the wild type. For part of these data: Where a sequence is shown, tags or fusion partners need not be part of it.
# T1: BD-SINA(77-216) (Arabidopsis thaliana) (UniProt Q93WE4)
# T1 sequence: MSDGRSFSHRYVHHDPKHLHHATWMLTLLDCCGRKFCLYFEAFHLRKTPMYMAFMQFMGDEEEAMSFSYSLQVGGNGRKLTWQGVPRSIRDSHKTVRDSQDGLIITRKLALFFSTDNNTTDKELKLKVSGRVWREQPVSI
# T2: BD-SINA2(1-80) (Arabidopsis thaliana) (UniProt Q93WE4)
# T2 sequence: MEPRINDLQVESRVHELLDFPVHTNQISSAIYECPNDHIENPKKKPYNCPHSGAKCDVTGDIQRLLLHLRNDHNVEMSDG
# T3: pGBKT7-SINA2 (BD-SINA2) (Arabidopsis thaliana) (UniProt Q93WE4)
# T3 sequence: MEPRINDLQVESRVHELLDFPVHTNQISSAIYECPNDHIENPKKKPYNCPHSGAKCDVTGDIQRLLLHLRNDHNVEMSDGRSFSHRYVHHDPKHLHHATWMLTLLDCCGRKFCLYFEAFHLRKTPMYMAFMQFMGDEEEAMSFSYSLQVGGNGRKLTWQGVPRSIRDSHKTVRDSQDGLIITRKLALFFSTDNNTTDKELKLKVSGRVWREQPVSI
# T4: pGBKT7-CDKG1 (BD-CDKG1) (Arabidopsis thaliana) (UniProt Q9FGW5)
# T4 sequence: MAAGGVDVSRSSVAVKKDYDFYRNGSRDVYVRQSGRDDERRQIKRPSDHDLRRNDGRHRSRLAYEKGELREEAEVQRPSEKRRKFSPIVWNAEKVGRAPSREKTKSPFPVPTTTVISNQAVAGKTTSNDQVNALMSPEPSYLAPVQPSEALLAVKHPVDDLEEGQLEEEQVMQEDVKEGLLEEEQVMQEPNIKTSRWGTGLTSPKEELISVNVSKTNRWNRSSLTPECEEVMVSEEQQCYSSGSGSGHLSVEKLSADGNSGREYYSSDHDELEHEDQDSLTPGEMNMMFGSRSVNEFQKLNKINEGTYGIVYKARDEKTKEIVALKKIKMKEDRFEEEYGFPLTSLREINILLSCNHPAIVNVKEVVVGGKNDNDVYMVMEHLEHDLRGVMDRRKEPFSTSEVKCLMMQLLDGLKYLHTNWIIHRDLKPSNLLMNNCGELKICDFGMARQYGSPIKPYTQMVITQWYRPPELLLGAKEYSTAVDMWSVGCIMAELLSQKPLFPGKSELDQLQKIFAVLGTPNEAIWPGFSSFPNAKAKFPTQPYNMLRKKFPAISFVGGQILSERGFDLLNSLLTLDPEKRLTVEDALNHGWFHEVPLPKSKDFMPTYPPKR
# T5: YFPC-CDKG1 (Arabidopsis thaliana) (UniProt Q9FGW5)
# T5 sequence: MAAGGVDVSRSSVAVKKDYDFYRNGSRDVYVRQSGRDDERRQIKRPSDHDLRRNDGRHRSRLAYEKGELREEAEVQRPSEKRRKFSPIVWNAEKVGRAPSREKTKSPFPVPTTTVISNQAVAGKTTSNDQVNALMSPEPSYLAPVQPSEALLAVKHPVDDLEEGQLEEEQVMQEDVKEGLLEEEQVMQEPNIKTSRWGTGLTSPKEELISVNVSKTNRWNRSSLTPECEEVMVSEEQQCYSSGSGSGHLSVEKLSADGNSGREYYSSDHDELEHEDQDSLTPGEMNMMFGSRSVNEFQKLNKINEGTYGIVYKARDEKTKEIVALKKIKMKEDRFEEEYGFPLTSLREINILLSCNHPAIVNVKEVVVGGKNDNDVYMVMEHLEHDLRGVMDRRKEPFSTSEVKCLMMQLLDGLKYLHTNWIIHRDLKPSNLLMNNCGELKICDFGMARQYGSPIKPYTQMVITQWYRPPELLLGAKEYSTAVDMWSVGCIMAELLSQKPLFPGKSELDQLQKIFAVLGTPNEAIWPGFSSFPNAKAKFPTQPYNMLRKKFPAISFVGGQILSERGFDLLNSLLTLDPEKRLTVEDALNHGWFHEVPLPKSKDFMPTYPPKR
# Key:
# [1] = target: T1, BD-SINA(77-216) (Arabidopsis thaliana); assay: two-hybrid; AH109 yeast co-transformed with bait and prey plasmids (pGBKT7, pGADT7), plated on SD/-Trp/-Leu and replica plated on SD/-Trp/-Leu/-His/-Ade, 4 days; also reciprocal orientation and SINA2 deletion constructs
# [2] = target: T2, BD-SINA2(1-80) (Arabidopsis thaliana); assay: as above
# [3] = target: T3, pGBKT7-SINA2 (BD-SINA2) (Arabidopsis thaliana); assay: as above
# [4] = target: T4, pGBKT7-CDKG1 (BD-CDKG1) (Arabidopsis thaliana); assay: as above
# [5] = target: T5, YFPC-CDKG1 (Arabidopsis thaliana); assay: split reporter; BiFC: YFPN and YFPC fusions co-expressed by agroinfiltration in N. benthamiana leaf epidermal cells, confocal microscopy
binder,measurement,setting,value
"pGADT7-CDKG1 (AD-CDKG1) (protein, UniProt Q9FGW5-1 1-612) MAAGGVDVSRSSVAVKKDYDFYRNGSRDVYVRQSGRDDERRQIKRPSDHDLRRNDGRHRSRLAYEKGELREEAEVQRPSEKRRKFSPIVWNAEKVGRAPSREKTKSPFPVPTTTVISNQAVAGKTTSNDQVNALMSPEPSYLAPVQPSEALLAVKHPVDDLEEGQLEEEQVMQEDVKEGLLEEEQVMQEPNIKTSRWGTGLTSPKEELISVNVSKTNRWNRSSLTPECEEVMVSEEQQCYSSGSGSGHLSVEKLSADGNSGREYYSSDHDELEHEDQDSLTPGEMNMMFGSRSVNEFQKLNKINEGTYGIVYKARDEKTKEIVALKKIKMKEDRFEEEYGFPLTSLREINILLSCNHPAIVNVKEVVVGGKNDNDVYMVMEHLEHDLRGVMDRRKEPFSTSEVKCLMMQLLDGLKYLHTNWIIHRDLKPSNLLMNNCGELKICDFGMARQYGSPIKPYTQMVITQWYRPPELLLGAKEYSTAVDMWSVGCIMAELLSQKPLFPGKSELDQLQKIFAVLGTPNEAIWPGFSSFPNAKAKFPTQPYNMLRKKFPAISFVGGQILSERGFDLLNSLLTLDPEKRLTVEDALNHGWFHEVPLPKSKDFMPTYPPKR",binding,[1],binds
same,binding,[2],no binding
same,binding,[3],binds
"SINA2 as prey plasmid (AD-SINA2) (protein, UniProt Q93WE4 1-216) MEPRINDLQVESRVHELLDFPVHTNQISSAIYECPNDHIENPKKKPYNCPHSGAKCDVTGDIQRLLLHLRNDHNVEMSDGRSFSHRYVHHDPKHLHHATWMLTLLDCCGRKFCLYFEAFHLRKTPMYMAFMQFMGDEEEAMSFSYSLQVGGNGRKLTWQGVPRSIRDSHKTVRDSQDGLIITRKLALFFSTDNNTTDKELKLKVSGRVWREQPVSI",binding,[4],binds
"YFPN-SINA2 (protein, UniProt Q93WE4 1-216) MEPRINDLQVESRVHELLDFPVHTNQISSAIYECPNDHIENPKKKPYNCPHSGAKCDVTGDIQRLLLHLRNDHNVEMSDGRSFSHRYVHHDPKHLHHATWMLTLLDCCGRKFCLYFEAFHLRKTPMYMAFMQFMGDEEEAMSFSYSLQVGGNGRKLTWQGVPRSIRDSHKTVRDSQDGLIITRKLALFFSTDNNTTDKELKLKVSGRVWREQPVSI",binding,[5],binds
"YFPN-SINA2(1-80) (domain or fragment, UniProt Q93WE4 1-80) MEPRINDLQVESRVHELLDFPVHTNQISSAIYECPNDHIENPKKKPYNCPHSGAKCDVTGDIQRLLLHLRNDHNVEMSDG",binding,[5],no binding
